Experimental data from patent US10336768B2, “Pyrimidine compounds and methods using the same” (Yuma Therapeutics, Inc., priority 2014, dated 2019).

System: phosphorylated tau protein (p-Tau)
Test: Tau phosphorylation assay in SHSY5Y-hTau441V337M/R406W cell line
Description: Cells were treated with compounds of the invention for 24 h and then lysed in a buffer containing NP-40, orthovanadate, and protease inhibitors. Western blots were performed with antibodies specific to Hsp70, Hsp90, or actin (as control). Tau phosphorylation was assayed using, e.g., a method of Liu et al., Biochemistry, 49:4921-4929, 2010, with SHSY5Y-hTau441V337M/R406W cell line (Loeffler et al., J. Mol. Neurosci., 47:192-203, 2012). […] The functional assay described herein provides an in vitro model of tauopathy and can be used to evaluate the effect of Hsp90 inhibitors on phosphorylated tau protein (p-Tau).

Nc1nc(-c2c(Cl)cc(Cl)c3c2CCO3)c2[nH]ccc2n1 [compound 20, 4-(5,7-Dichloro-2,3-dihydrobenzofuran-4-yl)-5H-pyrrolo[3,2-d]pyrimidin-2-amine]
levels of pTau396 (at 0.05, 0.1, and 0.5 μM, FIG. 6C): significant decreases in the levels of pTau396
levels of pTau231 (at 0.1 and 0.5 μM, FIG. 6B): significant decreases in the levels of pTau231
